From the RNAGym collection of RNA variant scans (doi:10.7554/elife.90254)
Read counts are not given, so values of variants with three or more changes are uncertain.

B1: OR4K15 (parent)
chain: GUUAACGGUCAUAGGCCAUGGAAACUAGGAGCACCAUUUCGCUGCCAGUGAAGAAAUGAACAAAGAAAAUCUGGGCCAGGCAGGCAUCAAAAGAAAUAGUCUUGCGCUCAACCAGAAAGUCUGUAAUCAUUUUAAGGGUA

Variants of: B1
Test: self-cleavage, relative activity (ratio to wild type); higher = more cleavage; in vitro, sequencing; the parent is a self-cleaving ribozyme

| Variant | self-cleavage |
| --- | --- |
| A23G A55G C109U | 0.58 |
| A23G U57A A94G U102C | 1.11 |
| A23G A67U A94G | 1.34 |
| A23G A47G A52G A68G U72C | 0.28 |
| A23G A55C G73A A125G | 0 |
| A23G A66U A67G | 0.89 |
| A23G A60G U108C U122G U132A | 0 |
| A23G A67G U108A | 0.01 |
| A22G U38A U120C U130C | 0.59 |
| A22U A86U A96G U100C | 0.64 |
| A23G A69G U72A A118G | 0.22 |
| A23G A51G A68G | 1.83 |
| A23G A30G U37C U131C | 0.66 |
| A23G U57G U108C | 0.01 |
| A23G A24G A33G | 1.01 |
| A23G U37C U87C | 1.76 |
| A23G A24G A92U U108C | 0.07 |
| A22G U49C A69G C128U | 0.89 |
| A23G A30G A51U A55G A62G U103C | 0.61 |
| A22G U26A A134G | 0.87 |
| A23G U57A A78U U132C | 0.21 |
| A23G U72C A78G | 0.24 |
| A23G U49C U133C | 1.46 |
| A22G U49A A63U | 1.23 |

| Variant | self-cleavage |
| --- | --- |
| A23G A59G U124C | 0.36 |
| A22G U49C U108A U122C | 0.02 |
| A23G A54G A67G | 1.87 |
| A23G A66C A68G U70A A118G U127C | 0.18 |
| A22U U70C A89U A92G U108C | 0.02 |
| A22G U70C U100C | 1.06 |
| A23G A69U A82U A90U G99C | 0.04 |
| A22U A51G A91G A118G | 0.67 |
| A23G A24G U43C G44U U49A A78U | 0.43 |
| A22U A33G A60G A67G U120C | 0.3 |
| A23G U87C U103C U133A | 0.12 |
| A23G A54G A91G A135U | 0.97 |
| A23G A52G U87C | 1.24 |
| A22G U100C U132C | 2.13 |
| A23G A24G A92U A95G A125G U127C | 0.59 |
| A23G A47G A52G A55G A59G A62G | 0.67 |
| A23C U102G A111U | 0.04 |
| A23G A69U U70C U72C G79U | 0.18 |
| A23G A54G A66G U87C U102C A111C | 0 |
| A23G A90G U103C | 0.14 |
| A23G U37C A89G U102C G136A | 1.68 |
| A23G A92G U132C | 1.11 |
| A23G U38C U72C U139C | 0.59 |
| A23G A55G A110G | 0.07 |

| Variant | self-cleavage |
| --- | --- |
| A23G A27G A54C A94G | 0.96 |
| A23G A78G U132C | 0.28 |
| A22G U39C U120C | 1.05 |
| A23G U122C U130C | 1.13 |
| A23G G75A U102A | 0.17 |
| A22G U120C A134G | 0.64 |
| A23C A94G U102A | 1.3 |
| A23G U70C A116G | 1.58 |
| A23G U72A U87C | 0.16 |
| A23U A24G A47G U72C | 0 |
| A23G A36C U131C | 0.22 |
| A23G A33U A59G | 1.04 |
| A23G U38A A51G U87G A111G U131C | 0.01 |
| A22G U38A A54U | 1.05 |
| A22U U57A A64G | 1.84 |
| A23G A36G A114G | 0.63 |
| A22G U49A U72C G106U A110C | 0 |
| A23G G58A A59C A134G | 0.54 |
| A23G U37C A116U | 0.35 |
| A22U A56G C105G | 0.05 |
| A23G A52G U108A | 0.04 |
| A23G A33U A54U A94G A96G | 1.22 |
| A23G A27G U38C A78G U131C | 0.06 |
| A23G A89U A96U A114G | 1.43 |

| Variant | self-cleavage |
| --- | --- |
| A23G A59G C61A G80U A94G A96G A114G | 0.03 |
| A23G A36G A59G G104C | 0.07 |
| A23G C35U A47G U87C | 0.33 |
| A22U A96G A117G | 2.41 |
| A23G A110C U127C | 0.06 |
| A22G U39A U57G A134G | 1.58 |
| A22U A66G U87C | 1.02 |
| A23G A60U U100G | 1.02 |
| A23G A55G G73U U130C | 0.18 |
| A22G U49C C113U | 0.12 |
| A23G A56G A95C | 1.24 |
| A23U A24C A64G | 0.67 |
| A23G A66G A78G C112U | 0.02 |
| A23G U38C A54G A55G A60G A94G A114G | 0.1 |
| A23G A51G A54G A90G A91G | 1.01 |
| A22G U38C A66G U132C | 1.51 |
| A23G A30G A33G U87C A92G U132C | 0.66 |
| A23G A63G U72G | 0.13 |
| A23G A92G A96G | 0.8 |
| A23G A36U U72C A126U | 0.52 |
| A23G A78U U139C | 0.33 |
| A23G U57C U130C | 0.8 |
| A23G A55G A68G | 2.14 |
| A22G U39C A51G A60G A67G | 0.78 |

| Variant | self-cleavage |
| --- | --- |
| A22U A59G A95G | 1.29 |
| A23G A64G A78U A96C U131C | 0.08 |
| A23G A60G U70A U133C | 1.18 |
| A22U A96G A111G U139G | 0 |
| A23G A91U A125G | 0.39 |
| A22G U39C A95G U133A | 1.81 |
| A23G A59G U97C A118G | 0.38 |
| A23G U70C G73U A117G | 0.14 |
| A23G A69G U100C U120A | 2.47 |
| A22U C45A U49A A59G | 1.32 |
| A23G A33G A135U | 0.48 |
| A22G U37C U57C G138A | 0.11 |
| A23G A51G A89G | 0.64 |
| A22G U49C C105U A110G | 0.08 |
| A22G U70C C85U A98G A118G | 0.21 |
| A23G C35U U39C A66G A90G | 1.22 |
| A23G U26C G80A | 0.07 |
| A22G U43C A116G | 1.59 |
| A22G U43C C105G G115A | 0.02 |
| A23G A54C G104A U120C | 0.01 |
| A23G A33G A66G C105U A118G | 0.09 |
| A23G A36C U37C A67G A89U | 1.57 |
| A23G A52G A55G A60G U100A | 0.41 |
| A22G U70A U108C A114U U131C | 0 |

| Variant | self-cleavage |
| --- | --- |
| A23G A60U A67G | 0.94 |
| A23G U38C U43A | 0.95 |
| A23G A33G G41A | 1.14 |
| A23G A51G A64G C77U | 1.3 |
| A23U A33U A90U A94G | 1.06 |
| A23G A33G A51G U120C | 0.27 |
| A22U A36G U57C U87A | 0.76 |
| A22U U26C C76A C77U A82G | 0.15 |
| A22U A78G A135G | 0.23 |
| A22G U37C U38A A60U | 1.48 |
| A22G U49G A92G A118G | 1.45 |
| A22U A110U A111G A117G U127C | 0 |
| A22G U37C A52G A114U A117G A129G | 0.01 |
| A23G U43C G50A U70A A96G U127C A134U | 0.23 |
| A22G U37C C42U | 1.15 |
| A22G U39C A96G A111U | 0.06 |
| A23G U38C A78G A95G U127C | 0.08 |
| A23G A52G G53A A89G U100C U124A | 1.37 |
| A22U A64G A95G | 0.97 |
| A22G U26A A59G C128A U131C | 0.65 |
| A22U A56G A60G | 0.56 |
| A23G A52G A96C G136C A140G | 0.65 |
| A23G G31U U43C A52G A66G | 1.22 |
| A23G C42A A64G A96G | 0.63 |

| Variant | self-cleavage |
| --- | --- |
| A23G A51G U122A | 0.93 |
| A23G A36G U38C A91U A111G | 0.07 |
| A22G U38C U133C | 1.42 |
| A22G U87C U108C A116G A129C U130G U132C A134G | 0.26 |
| A23G A30G A51G U70C | 0.56 |
| A23G A30G U49C A54G A118G | 0.64 |
| A23G A89U A94U U100C U108A A129U | 0.03 |
| A23G A36G G83U A94G A116G U130C | 0.08 |
| A23G A69G U87C U120A | 1.09 |
| A22G U39A U102A U124C | 0.51 |
| A23G A47G G65A | 0.48 |
| A22G U38C A59G G74A A117G | 0.1 |
| A22G U72A A82U A91G | 0.13 |
| A23G A52G A67G A94G U127C | 0.28 |
| A23G A92G A94G A118U | 0.26 |
| A22G U43A U70C U87A U120C | 0.23 |
| A22U U57C A89G | 0.96 |
| A23G A64G C109U | 0.44 |
| A23G U57C A82U | 0.26 |
| A22G U57C A114U | 0.06 |
| A23G G75C G123A A126U | 0.23 |
| A23G A78G U127C | 0.15 |
| A22U U87C U100C | 2.46 |
